Test results from the supplement of paper PMC12217912.
This is one part of the list. The full chains were built here from the parent and the listed change. Values near 0.05 are background.

B1: TEV protease; numbered along this chain (parent)
chain: MGESLFKGPRDYNPISSSICHLTNESDGHTTSLYGIGFGPFIITNKHLFRRNNGTLVVQSLHGVFKVKDTTTLQQHLVDGRDMIIIRMPKDFPPFPQKLKFREPQREERICLVTTNFQTKSMSSMVSDTSCTFPSGDGIFWKHWIQTKDGQCGSPLVSTRDGFIVGIHSASNFTNTNNYFTSVPKNFMELLTNQEAQQWVSGWRLNADSVLWGGHKVFMVKPEEPFQPVKEATQL

Variants of: B1
Test: raw area under fraction-flipped curve 0-4 h after induction (AUC4h, not background-subtracted), DNA-recorder readout of cleavage of the substrate (dimensionless); higher = more cleavage of the substrate by the protease variant
Details: temperature: 34 °C; time window: 0-4 h after rhamnose induction
Procedure: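 In vivo DNA recorder in E. coli TOP10(DE3) ΔrhaA at 34 °C. Each TEVp single-site mutant (parent TEVp 0) is paired with a single-site variant of the 7-mer TEVs (canonical ENLYFQ|S). The substrate sits between flexible linkers in a Bxb1-sfGFP-TEVs-SsrA fusion, so cleavage stabilises Bxb1 and speeds flipping of a recombination array, read by NGS. The value is the raw area under the fraction-flipped curve over 0-4 h after rhamnose induction (AUC4h), with ≥20 reads per time point. It is not background-subtracted; inactive controls average about 0.047.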
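Note: Bxb1 expression induced with 0.2% (w/v) L-rhamnose at OD600 near 0.5, cultures sampled hourly, flipped fraction per protease–substrate barcode pair counted by paired-end Illumina sequencing.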

Variant	area with substrate ECLYFQS	area with substrate EDLYFQS	area with substrate EGLYFQS	area with substrate EHLYFQS	area with substrate EILYFQS	area with substrate EKLYFQS	area with substrate ELLYFQS	area with substrate EMLYFQS	area with substrate EPLYFQS	area with substrate EQLYFQS	area with substrate ERLYFQS	area with substrate ESLYFQS	area with substrate ETLYFQS	area with substrate EVLYFQS	area with substrate EELYFQS	area with substrate EFLYFQS	area with substrate EWLYFQS	area with substrate EYLYFQS
MGESLFKGPRDYNPISSSICHLTNESDGHTTSLYGIGFGPFIITNKHLFRRNNGTLVVQSLHGVFKVKDTTTLQQHLVDGRDMIIIRMPKDFPPFPQKLKFREPQREERICLVTTNFQTKSMSSMVSDTSCTFPSGDGIFWKHWIQTKDGQCGSPCVSTRDGFIVGIHSASNFTNTNNYFTSVPKNFMELLTNQEAQQWVSGWRLNADSVLWGGHKVFMVKPEEPFQPVKEATQL [L156C]	0.0933	0.142	0.102	0.102	0.0911	0.0991	0.121	0.124	0.1	0.115	0.112	0.113	0.0983	0.119				
MGESLFKGPRDYNPISSSICHLTNESDGHTTSLYGIGFGPFIITNKHLFRRNNGTLVVQSLHGVFKVKDTTTLQQHLVDGRDMIIIRMPKDFPPFPQKLKFREPQREERICLVTTNFQTKGMSSMVSDTSCTFPSGDGIFWKHWIQTKDGQCGSPLVSTRDGFIVGIHSASNFTNTNNYFTSVPKNFMELLTNQEAQQWVSGWRLNADSVLWGGHKVFMVKPEEPFQPVKEATQL [S121G]	0.127		0.0888	0.124	0.105	0.0962		0.0982	0.0102	0.115	0.105	0.134	0.105	0.159	0.149			
MGESLFKGPRDYNPISSSICHLTNESDGHTTSLYGIGFGPFIITNKHLFRRNNGTLVVQSLHGVFKVKDTTTLQQHLVDGRDMIIIRMPKDFPPFPQKLKFREPQREERICLVTTNFQTKSMSSMVSDTSCTFPSGDGIFWKHWIQTKDGQCGSPLVSTRDGFIVGIHSASNFTNTNNYFTSVPKNFMELLTNQEAQQWVSGWRLNADSVLWGGHKVFMVKPEEPFQPVKEATLL [Q234L]	0.0781				0.0633	0.066	0.109	0.123	0.0999	0.112		0.104	0.102	0.0828	0.108	0.0924	0.0568	0.11
MGESLFKGPRDYNPISSSICHLTNESDGHTTSLYGIGFGPFIITNKHLFRRNNGTLVVQSLHGVFKVKDTTTLQQHLVDGRDMIIIRMPKDFPPFPQKLKFREPQREERICLVTTNFQTKSMSSMVSDTSCTFPSGDGIFWKHWIQTKDGQCGSPLVSTRDGFIVGIHSASNFTNTNNYFTSVPKNFMELLTNQEAQQWVSGWRLNADSVLWGGHKVFMNKPEEPFQPVKEATQL [V220N]	0.127	0.137	0.134	0.111	0.109		0.091			0.14	0.137	0.11		0.102	0.145		0.0955	
MGESLFKGPRDYNPISSSICHLTNESDGHTTSLYGIGFGPFIITNKHLFRRNNGTLVVQSLHGVFKVKDTTTLQQHLVDGRDMIIIRMPKDFPPFPQKLKFREPQREERICLVTTNFQTKSMSSMVSDTSCTFPSGDGIFWKHWIQTKDGQCGSHLVSTRDGFIVGIHSASNFTNTNNYFTSVPKNFMELLTNQEAQQWVSGWRLNADSVLWGGHKVFMVKPEEPFQPVKEATQL [P155H]	0.0449	0.0649	0.0421		0.054	0.0485	0.0525	0.0354		0.068	0.0692	0.0542		0.0522			0.0464	0.0373
MGESLFKGPRDYNPISSSICHLTNESDGHTTSLYGIGFGPFIITNKHLFRRNNGTLVVQSLHGVFKVKDTTTLQQHLVDGRDMIIIRMPKDFPPFPQKLKFREPQREERICLVTTNFQTKSMSSMVSDTSCTFPSGDGIFWKHWIQTKDGQCGSPLVSTRDGFIVGIHSASNFTNTNNYFTSVPKNFMELLTNQEAQQWVSGWRLNADSVLWGGHKVFMVKPEEPFQPMKEATQL [V229M]	0.108		0.0833	0.0937			0.114	0.0968		0.11		0.0896		0.113	0.107		0.0928	
MGESLFKGPRDYNPISSSICHLTNESDGHTTSLYGIGFGPFIITNKHLFRRNNGTLVVQSLHGVFKVKDTTTLQQHLVDGRDMIIIRMPKDFPPFPQKLFFREPQREERICLVTTNFQTKSMSSMVSDTSCTFPSGDGIFWKHWIQTKDGQCGSPLVSTRDGFIVGIHSASNFTNTNNYFTSVPKNFMELLTNQEAQQWVSGWRLNADSVLWGGHKVFMVKPEEPFQPVKEATQL [K100F]	0.103	0.128	0.0901		0.0689			0.0973		0.106			0.109	0.105	0.12		0.106	
MGESLFKGPRDYNPISSSICHLTNESDGHTTSLYGIGFGPFIITNKHLFRRNNGTLVVQSLHGVFKVKDTTTLQQHLVDGRDMIIIRMPKDFPPFPQKLKFREPQREERICLVTTNFQTKSMSSMVSDTSCTFPSGDGIFWKHWIQTKDGQCGSPLVSTRDGFIVGIHSASNFTNTNNYFTSVPKNFMELLTNQEAQRWVSGWRLNADSVLWGGHKVFMVKPEEPFQPVKEATQL [Q198R]	0.111	0.11		0.136	0.139	0.125		0.0969	0.0125	0.139	0.121	0.11	0.0895		0.111		0.092	0.123
MGESLFKGPRDYNPISSSICHLTNESDGHTTSLYGIGFGPFIITNKHLFRFNNGTLVVQSLHGVFKVKDTTTLQQHLVDGRDMIIIRMPKDFPPFPQKLKFREPQREERICLVTTNFQTKSMSSMVSDTSCTFPSGDGIFWKHWIQTKDGQCGSPLVSTRDGFIVGIHSASNFTNTNNYFTSVPKNFMELLTNQEAQQWVSGWRLNADSVLWGGHKVFMVKPEEPFQPVKEATQL [R51F]	0.134	0.173			0.138	0.138		0.117	0.126	0.15	0.133	0.109	0.137	0.103	0.113			
MGESLFKGPRDYNPISSSICHLTNESDGVTTSLYGIGFGPFIITNKHLFRRNNGTLVVQSLHGVFKVKDTTTLQQHLVDGRDMIIIRMPKDFPPFPQKLKFREPQREERICLVTTNFQTKSMSSMVSDTSCTFPSGDGIFWKHWIQTKDGQCGSPLVSTRDGFIVGIHSASNFTNTNNYFTSVPKNFMELLTNQEAQQWVSGWRLNADSVLWGGHKVFMVKPEEPFQPVKEATQL [H29V]	0.128	0.148		0.153	0.072	0.113	0.099	0.144			0.104	0.135	0.11				0.107	0.11
MGESLFKGPRDYNPISSSICHLTNESDGHTTSLYGIGFGPFIITNKHLFRRNNGTLVVQSLHGVFKVKDTTTLQQHLVDGRDMIIIRMPKDFPPFPQKLKFREPQREERICLVTTNFQTKSMSSMVSDTSCTFPSGDGIFWKHWIQTKDGQCGSPLVSTRDGFIVGIHSASNFTNTNNYFTSVPKNFMELLTNQEAQQRVSGWRLNADSVLWGGHKVFMVKPEEPFQPVKEATQL [W199R]	0.0598	0.0835	0.0626		0.0595		0.0737	0.063	0.0603	0.072		0.0705	0.063		0.0672		0.0524	0.0678
MGESLFKGPRDYNPISSSICHLTNESDGHTTSLYGIGFGPFIITNKHLFRRNNGTLVVQSLHGVFKVKDTTTLQQHLVDGRDMIIIRMPKDFPPFPQKLKFREPQREERICLVTTNFQTKSMSSMVSDTSCTFPSGDGIFWKHWIQTKDGQCGSPLVSTRDGFIVGIHSASNFTNTNNYFTSVPKNFMELLTNQEAQQLVSGWRLNADSVLWGGHKVFMVKPEEPFQPVKEATQL [W199L]	0.065			0.0494		0.0691		0.0529		0.0809			0.0703	0.0505			0.0561	
MGESLFKGPRDYNPISSSICHLTNESDGHTTSLYGIGFGPFIITNKHLFRRNNGTLVVQSLHGVFKVKDTTTLQQHLVDGRDMIIIRMPKDFPPFPQKLKFREPQREERICLVTTNFQTKSMSSMVSDTSCTFPSGDGIFWKHWIQTKDGQCGSPLVSTRDGFIVGIHSASNFTNTNNYFTSVPKNFMELLTNQEAQQWVSGWRLNADSVLWGGHKVFMVKPEELFQPVKEATQL [P225L]	0.094		0.0674		0.0858	0.115		0.112		0.0951	0.0874	0.112		0.0426			0.0857	0.129
MGESLFKGPRDYNPISSSICHLTNESDGHTTSLYGIGFGPFIITNKHLFRRNNGTLVFQSLHGVFKVKDTTTLQQHLVDGRDMIIIRMPKDFPPFPQKLKFREPQREERICLVTTNFQTKSMSSMVSDTSCTFPSGDGIFWKHWIQTKDGQCGSPLVSTRDGFIVGIHSASNFTNTNNYFTSVPKNFMELLTNQEAQQWVSGWRLNADSVLWGGHKVFMVKPEEPFQPVKEATQL [V58F]	0.0968				0.0872		0.0826		0.102									0.067
MGESLFKGPRDYNPISSSICHLTNESDGHTTSLYGIGFGPFIITFKHLFRRNNGTLVVQSLHGVFKVKDTTTLQQHLVDGRDMIIIRMPKDFPPFPQKLKFREPQREERICLVTTNFQTKSMSSMVSDTSCTFPSGDGIFWKHWIQTKDGQCGSPLVSTRDGFIVGIHSASNFTNTNNYFTSVPKNFMELLTNQEAQQWVSGWRLNADSVLWGGHKVFMVKPEEPFQPVKEATQL [N45F]	0.0657	0.0625		0.0334	0.0638	0.0721	0.0605	0.064			0.0528	0.0559		0.0627	0.0638	0.0703	0.0598	0.0444
MGESLFKGPRDYNPISSSICHLTNESDGHTTSLYGIGFGPFIITNKHLFRRNNGTLVVQSLHGVFKVKDTTTLQQHLVDGRDMIIIRMPKDFPPFPQKLKFREPQREERICLVTTNFQTKSMSSMVSDTSCTFPSGDGIFWKHWIQTKDGQCGSPLVSTRDGFIVGIHSASNFTNTNNYFTKVPKNFMELLTNQEAQQWVSGWRLNADSVLWGGHKVFMVKPEEPFQPVKEATQL [S182K]	0.0737	0.044	0.0486		0.0765	0.0666	0.0752	0.0699		0.0745	0.0759	0.0627	0.0854	0.0699		0.0792		
MGESLFKGPRDYNPISSSICHLTNESDGHTTSLYGIGFGPFIITNKHLFRRNNGTLVVQSLHGVFKVKDTTTLQQHLVDGRDMIIIRMPKDFPPFPQKLKFREPQREERICLVTTNFQTKSMSSMVSDTSCTFPSGDGIFWKHWIQTKDGQCGSPLVSTRDGFIVIIHSASNFTNTNNYFTSVPKNFMELLTNQEAQQWVSGWRLNADSVLWGGHKVFMVKPEEPFQPVKEATQL [G166I]	0.0413	0.0695	0.0486		0.0379	0.0218		0.0473		0.0625	0.0583	0.0539	0.0543	0.0471	0.0405	0.0573		0.0619
MGESLFKGPRDYNPISSSICHLTNESDGHTTSLYGIGFGPFIITNKHLFRRNNGTLVVQSLHGVFKVKDTTTLQQHLVDGRDMIIIRMPKDFPPFPQKLKFREPQREERICLVTTNFQTKSMSSMVSDTSCTFPSGDGIFWKHWIQTKDGQCGSPLVSTRDGFIVGIHSASNFTNTNNYFTSVPKNFMELLTNQEAQQWVSGWRLNADSLLWGGHKVFMVKPEEPFQPVKEATQL [V210L]	0.103	0.106	0.0625	0.0973	0.0759	0.0809	0.0879	0.0987	0.108	0.108	0.0861	0.0929		0.091	0.124	0.0871	0.0076	0.0846
MGESLFKGPRDYNGISSSICHLTNESDGHTTSLYGIGFGPFIITNKHLFRRNNGTLVVQSLHGVFKVKDTTTLQQHLVDGRDMIIIRMPKDFPPFPQKLKFREPQREERICLVTTNFQTKSMSSMVSDTSCTFPSGDGIFWKHWIQTKDGQCGSPLVSTRDGFIVGIHSASNFTNTNNYFTSVPKNFMELLTNQEAQQWVSGWRLNADSVLWGGHKVFMVKPEEPFQPVKEATQL [P14G]	0.107		0.144	0.139	0.113	0.0664		0.104			0.0954	0.105			0.13	0.108	0.109	0.1
